# Results: PMC4336329 (PLoS ONE, 2015)
# Hit rate of the full screen: of about 310,000 compounds, about 2,200 (0.71%) showed an effect of 50% or more. Effects have a minus sign here. This is one part of the list.
# Target: human ether-à-go-go-related gene (hERG) potassium channel (human, UniProt Q12809)
# Assay: primary screen, population patch clamp on CHO cells stably expressing hERG
# Chain of human ether-à-go-go-related gene (hERG) potassium channel (Q12809 whole entry, looked up): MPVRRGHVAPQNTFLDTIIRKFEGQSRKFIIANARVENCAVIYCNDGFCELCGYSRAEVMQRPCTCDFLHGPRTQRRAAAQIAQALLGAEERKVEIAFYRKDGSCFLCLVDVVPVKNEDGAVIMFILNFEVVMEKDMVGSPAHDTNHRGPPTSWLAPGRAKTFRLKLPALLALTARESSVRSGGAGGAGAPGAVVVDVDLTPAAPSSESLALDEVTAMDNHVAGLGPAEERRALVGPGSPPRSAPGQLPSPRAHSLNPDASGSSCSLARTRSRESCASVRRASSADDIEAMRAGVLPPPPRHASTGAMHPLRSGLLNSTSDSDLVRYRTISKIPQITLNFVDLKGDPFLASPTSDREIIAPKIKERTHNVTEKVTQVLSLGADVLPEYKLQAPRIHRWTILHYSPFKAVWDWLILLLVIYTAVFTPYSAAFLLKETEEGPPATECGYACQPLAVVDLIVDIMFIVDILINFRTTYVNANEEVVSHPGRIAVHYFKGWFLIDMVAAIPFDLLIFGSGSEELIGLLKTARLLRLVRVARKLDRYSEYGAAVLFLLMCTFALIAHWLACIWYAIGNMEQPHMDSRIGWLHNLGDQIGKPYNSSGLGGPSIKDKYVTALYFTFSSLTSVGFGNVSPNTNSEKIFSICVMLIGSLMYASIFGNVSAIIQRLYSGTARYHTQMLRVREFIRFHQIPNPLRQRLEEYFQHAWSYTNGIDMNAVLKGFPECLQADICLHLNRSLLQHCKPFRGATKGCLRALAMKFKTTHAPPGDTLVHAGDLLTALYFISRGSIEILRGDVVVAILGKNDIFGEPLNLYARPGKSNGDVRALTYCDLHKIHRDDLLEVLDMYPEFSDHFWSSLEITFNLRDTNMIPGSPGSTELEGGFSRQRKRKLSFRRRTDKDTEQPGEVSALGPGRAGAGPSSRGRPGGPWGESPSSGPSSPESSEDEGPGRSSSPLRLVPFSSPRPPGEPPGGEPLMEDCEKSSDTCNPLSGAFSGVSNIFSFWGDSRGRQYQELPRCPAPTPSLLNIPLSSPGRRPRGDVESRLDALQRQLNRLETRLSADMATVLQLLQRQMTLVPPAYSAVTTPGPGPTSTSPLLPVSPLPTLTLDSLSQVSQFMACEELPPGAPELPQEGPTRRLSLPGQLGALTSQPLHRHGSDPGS
row,SMILES,"hERG current change (%, negative = inhibition) at 1uM [%]"
1,O=C(O)Cc1ccc(O)cc1,11.7
2,Cc1cc(C)c(C#N)c(SCc2ccc(C(=O)O)cc2)n1,2.68
3,C#CCNC(=O)C1=C[C@H](C(C)(C)C)C[C@H](OCCCCO)O1,-6.94
4,Cc1ccc(CNC(=O)Nc2cccc(C)c2)cc1,19.4
5,COc1cc(SC)ccc1C(=O)Nc1ccncc1,11.4
6,S=C(NCc1ccc2c(c1)OCO2)Nc1ccc(-c2nc3ccccc3[nH]2)cc1,10.8
7,Oc1[nH]c2ccccc2c1N=Nc1ccc(C(F)(F)F)cn1,10.9
8,O=C(CSc1nc2[nH]c(=O)cc(O)c2s1)Nc1cc(Cl)cc(Cl)c1,2.13
9,Cc1ccc(C)c(N2CCN(C(=O)c3ccc4nc(-c5ccco5)c(-c5ccco5)nc4c3)CC2)c1,23.4
10,O=C(CN1CCN(c2ccc(F)cc2)CC1)NCc1ccc(Cl)cc1,-27.9
11,CCCS(=O)(=O)N1CCC(C(=O)NC2CCCC(C)C2C)CC1 (centres unmarked),5.97
12,CC(C)Cc1cc(C(=O)Nc2cc(Cl)ccc2Cl)no1,14.1
13,CCC1CCCCN1C(=S)Nc1ccc(C(C)=O)cc1 (centres unmarked),10.6
14,O=C(O)c1cccc(-n2cccc2/C=C2\SC(=O)N(Cc3ccccc3F)C2=O)c1,12.9
15,Cc1cccc(NC(c2ccc(O)cc2)c2ccc3ccc(C)nc3c2O)n1 (centres unmarked),25.6
16,Cc1ccc(NC(=S)NNc2ncc(C(F)(F)F)cc2Cl)cc1,3.59
17,CCOC(=O)c1c(NC(=O)CN2CCCCC2)sc2c1CCN(C(=O)OCC)C2,2.11
18,O=C(Nc1ccccn1)C12CC3CC(CC(C3)C1)C2,-12.3
19,CCCC(C)NC(=O)C1CCN(C(=O)C2CC(=O)N(c3ccc(C)cc3)C2)CC1 (centres unmarked),3.91
20,CCc1nn(C)c(N)c1C.Cl,10.9
21,COc1ccccc1CN1C[C@@H]2C[C@@H](c3ccc(Cl)cc3)N3CCC[C@@]23C1=O,-29.4
22,O=C(N/N=C/c1ccc(O)c(O)c1)N/N=C/c1ccc(O)c(O)c1,9.14
23,O=C1/C(=N\S(=O)(=O)c2cccs2)C([n+]2cccc(Cc3ccccc3)c2)=C([O-])c2ccccc21,7.92

row,SMILES,"hERG current change (%, negative = inhibition) at 1uM [%]"
1,COC(=O)c1c(N)sc(C(=O)NCCc2ccccc2)c1C,12.2
2,CCOC1OC(=O)C(Cl)=C1Nc1ccc(C)cc1C (centres unmarked),11.5
3,CSc1nsc(SC)c1C(=O)O,19.4
4,CSCCC(NC(=O)c1ccc(Cl)cc1Cl)C(=O)OCC(N)=O (centres unmarked),8.22
5,Cc1[nH]c(=O)[nH]c(=O)c1/C=N/NC(=O)[C@@H](NC(=O)OC(C)(C)C)C(C)C,6.61
6,CC(CCc1ccccc1)NC(=O)CCC1CCCC1 (centres unmarked),-4.4
7,CC(C)Oc1ccc(N2CC(C(=O)Nc3ccc4c(c3)OCO4)CC2=O)cc1 (centres unmarked),5.88
8,Cc1[nH]c2ccccc2c1/C=C/c1nc2ccccc2c(=O)n1-c1ccc([N+](=O)[O-])cc1,-1.09
9,COc1ccc(-c2cc(C(F)(F)F)nc(SCC(=O)Nc3cc(C)on3)n2)cc1OC,11.5
10,CCCOc1ccc(C(=O)NNC(=S)NC(=O)c2cc(-c3ccc(Cl)cc3)nc3ccccc23)cc1,10.3
11,Br.C=CCn1c(=N)n(CC(=O)c2ccc(OC)cc2)c2ccccc21,-2.61
12,CCOC(=O)C1CCCN(C(=O)c2cc(-c3ccc(C)cc3)nc3ccccc23)C1 (centres unmarked),10.4
13,CSc1nsc(SCC(=O)Nc2c(C)n(C)n(-c3ccccc3)c2=O)n1,2.23
14,CN(C)C(=O)C(NC(=O)c1ccccc1)=C(Cl)Cl,-3.02
15,CC(C)Oc1ccc(CN2CCC(n3nccc3NC(=O)c3cccnc3)CC2)cc1,-52.6
16,CC12CC3CC(C)(C1)CC(N)(C3)C2.O=[N+]([O-])O,5.74
17,Cc1[nH]c2ccccc2c1C(=O)CN1C(=O)C(=O)N(C2CCCC2)C1=O,10.6
18,Cc1ccc(S(=O)(=O)N2CCOC23CCN(S(=O)(=O)c2c(C)cc(C)cc2C)CC3)cc1,3.94
19,Cc1cc(Cl)ccc1OCC(O)CN1C(C)CCCC1C.Cl (centres unmarked),-46.3
20,CCN(CC)C(=O)Oc1ccccc1NC(C)=O,17.6
21,Cc1cc(C)c(C#N)c(SCC(=O)Nc2ccc(S(=O)(=O)Nc3ncccn3)cc2)n1,10.9
22,O=C(Nc1ccccc1C(=O)O)c1cccc(NC(=O)c2ccco2)c1,15.9
23,CN(C)S(=O)(=O)c1ccc(NC(=O)COC(=O)CC2CC3CCC2C3)cc1 (centres unmarked),3.85

row,SMILES,"hERG current change (%, negative = inhibition) at 1uM [%]"
1,O=c1ccc(/C=C/c2ccccc2)nn1Cc1ccc(Cl)cc1Cl,3.78
2,O=C(C1CCCC1)N1CCN(S(=O)(=O)c2ccc(Cl)cc2)CC1,18
3,O=C(Cc1ccc(Br)cc1)Nc1cccc(-c2cn3c(n2)SCC3)c1,12.2
4,Cc1ccc(NC(=O)CCn2nc(C)cc2C)cc1,13.7
5,O=C1c2ccncc2C(=O)N1c1cccc(Cl)c1,6.45
6,CNC(=O)Nc1ccc2nc(C)sc2c1,8.73
7,Cc1nc2nc(-c3cccnc3)nn2c(C)c1Cl,6.68
8,COc1cc(O)c(C(CCN2CCN(c3ccccc3)CC2)c2cc(OC)c(OC)c(OC)c2)c(OC)c1 (centres unmarked),11.3
9,CN(C)C(=O)CCC(=O)N(C)CC1CCCN(CCc2ccc(F)cc2)C1 (centres unmarked),-0.257
10,COC(=O)c1ccc(C(=O)OC)c(NC(=O)CN(c2ccccc2)S(=O)(=O)N(C)C)c1,2.65
11,COc1ccc(NC(=O)Cc2c(O)c3ccccc3[nH]c2=O)cc1,0.287
12,CCCCn1c(N)c(N(Cc2ccccc2OC)C(=O)C(C)Oc2ccc(F)cc2)c(=O)[nH]c1=O (centres unmarked),9.78
13,C=CCC(CC=C)(NC(=O)c1ccccc1C(=O)O)c1ccccc1,1.96
14,CCOC(=O)N1CCN(CCC(=O)Nc2ccc(Br)c(C)c2)CC1.Cl,2.3
15,OCC1(Cc2ccccc2)CCN(Cc2ccc(-c3ccco3)cc2)CC1,-8.07
16,CN(C)c1nc(C(=O)O)nc(N2CCOCC2)n1,8.43
17,CC(=O)c1ccc(S(=O)(=O)Nc2cccc(-c3cn4c(n3)SCC4)c2)cc1,7.41
18,NC(=O)N1CCN(C(=O)c2ccco2)CC1,2.15
19,CCOC(=O)C(CC)Sc1ncnc2nc[nH]c12 (centres unmarked),-0.0147
20,Cc1nnc(SCC(=O)N2CCN(Cc3ccccc3)CC2)s1,0.0845
21,COc1ccc(S(=O)(=O)N(CC(=O)NCc2ccco2)c2ccccc2)cc1OC,8.42
22,CCCOc1ccccc1C(=O)N(Cc1cccc(Br)c1)C1CCS(=O)(=O)C1 (centres unmarked),1.89
23,CC(C(=O)NCC1CCCO1)N(C(=O)c1snc(C(N)=O)c1N)c1cccc(F)c1 (centres unmarked),3.08

row,SMILES,"hERG current change (%, negative = inhibition) at 1uM [%]"
1,CCOc1ccc(Oc2ccc(Cl)cc2NC(=O)CCNC(C)=O)cc1,6.03
2,Cc1cccc(S(=O)(=O)Nc2nc3ccccc3nc2NCc2ccc3c(c2)OCO3)c1,18.7
3,CN(C)c1cccc2c(S(=O)(=O)Nc3ccccn3)cccc12,7.99
4,O=C(CSc1nnnn1C1CCCCC1)NCCc1ccccc1,5.19
5,CCCCCC(=O)NC(=S)Nc1ccccc1C(=O)OC,9.61
6,CC1CCCN(C(=O)COC(=O)Cc2c[nH]c3ccccc23)C1 (centres unmarked),10.3
7,CCC1=Nc2cc(C(=O)NCC3CCCO3)ccc2Sc2ccc(Cl)cc21 (centres unmarked),6.98
8,CCN1CCc2c(sc(NC(=S)NC(=O)c3ccco3)c2C(N)=O)C1,15.8
9,CC(C)CCn1c(SCC(N)=O)nc2c1c(=O)n(C)c(=O)n2C,10.7
10,CCn1cc(C(=O)NCc2cccc(C(F)(F)F)c2)c(=O)c2ccc(C)nc21,9.74
11,CCc1c(C)sc(NC(=O)c2cc(-c3ccco3)on2)c1C#N,13.9
12,O=C1NC(=S)N(c2ccc(Cl)cc2)C(=O)/C1=C/N1CCN(C(=O)c2ccco2)CC1,15.4
13,Cc1cccn2c(=O)nc(SCC(=O)N3CC(C)OC(C)C3)nc12 (centres unmarked),6.96
14,COc1ccc(N(CC(=O)NCCSc2ccccn2)S(=O)(=O)c2ccccc2)cc1Cl,11.3
15,CCCOc1ccc(CNC(=S)Nc2ccccc2)cc1Cl,16.5
16,COc1ccc(CNC(=O)C2CCN(S(=O)(=O)N3CCCCC3)CC2)c(OC)c1,6.87
17,Cc1ncc(CO)c(CNc2ccc(Oc3ccccc3)cc2)c1O,5.5
18,Cc1ccc(S(=O)(=O)N2C(=O)CCC2C(=O)O/N=C(\N)c2cccc([N+](=O)[O-])c2)cc1 (centres unmarked),-1.25
19,CCOC(=O)c1ccc(NC(=O)CSc2nnc(COc3ccccc3OC)n2CC)cc1,7.98
20,CS(=O)(=O)N(CC(N)=O)c1cccc(Br)c1,9.98
